This is an account of results in PubChem BioAssay AID1240 (Sanford-Burnham Center for Chemical Genomics, 2008).

SMILES strings stand for the structures. The campaign covered roughly 50,000 compounds. About 800 (1.6%) showed an effect of 50% or more. The list shows a part of the results.

In the assay the target is Bcl-2-like protein 10 (Homo sapiens) (UniProt Q9HD36). The experiment in a line: TR3 peptide-Bcl-B binding displacers, biochemical primary FP assay, phenotype converters (AID 1240).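 Note: 0% = Bcl-B with tracer peptide and DMSO and 100% = tracer peptide lacking Bcl-B.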 The note with it: GST-Bcl-B / FITC-TR3 peptide fluorescence polarization; stronger effect = higher value; compound at 3.75 mg/L. In general terms: Fluorescence polarisation rises when a labelled molecule tumbles more slowly, as on binding a larger partner.
Chain of UniProt Q9HD36 (Q9HD36 whole entry, looked up): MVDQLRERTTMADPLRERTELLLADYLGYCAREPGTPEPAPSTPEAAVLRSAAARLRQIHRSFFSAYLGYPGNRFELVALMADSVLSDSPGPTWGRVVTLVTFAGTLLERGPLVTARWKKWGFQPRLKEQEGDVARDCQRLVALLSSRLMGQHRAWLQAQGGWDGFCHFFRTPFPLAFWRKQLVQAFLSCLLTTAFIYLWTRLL
Turning to `O=C(c1cccc([N+](=O)[O-])c1)N1CCN(c2cccc(C(F)(F)F)c2)CC1`, the displacement was 2.2%.

Take `CC1=NN(c2ccccc2)C(=O)C1C=C1C(=O)NC(=S)NC1=O` (configuration not stated): the displacement was -2.6%.

For the compound `COc1ccc2nc(NC(=O)c3ccccc3OC)sc2c1`, the displacement was 4.1%.

Turning to `CSc1nc2sc3c(c2c(=O)[nH]1)CCN(Cc1ccccc1)C3`, the displacement was 81%.

With `N/C(=N\OC(=O)c1cccc(Br)c1)c1cccc([N+](=O)[O-])c1`, the displacement was -3.8%.

Regarding `COc1ccc(/C(C)=N/NC(=O)c2cccc(Cl)c2)c(OC)c1`, the displacement was -3.5%.

Consider `O=C(Cc1ccc(Cl)cc1)Nc1cccnc1`, for which the displacement came to 13.5%.

Consider `CCN1C(=O)CC(N2CCN(c3ccc(Cl)cc3)CC2)C1=O` (configuration not stated), for which the displacement was -4.1%.

For the compound `O=C(CSCc1cccc(Br)c1)NCc1ccco1`, the displacement worked out at 1%.

With `O=C(CSCc1ccc(Br)cc1)N/N=C/c1ccc(Sc2ccccn2)o1`, the displacement was -17.7%.

Regarding `COc1ccc(CC(=O)Nc2ccc(Br)cc2C)cc1OC`, the displacement stood at 5.8%.

With `Cc1ccc(OCc2nnc(NC(=O)OCC(C)C)s2)c(C)c1`, the displacement was -4.7%.

As for `O=C(Nc1ccc(NC(=O)c2cccnc2)cc1)c1ccc(NC(=O)c2cccnc2)cc1`, the displacement worked out at 3.4%.

With `CC(C)Cc1cc(-c2ccco2)c(C#N)c(N)n1`, the displacement is 12.5%.

`CC(C)CCNC(=O)C(=O)Nc1nccs1`: the displacement is 7.1%.

In the case of `Cc1cc(C)nc(SCC(=O)N/N=C/c2cc([N+](=O)[O-])ccc2O)n1`, the displacement is -14.6%.

With `Brc1ccc2nc(N3CCNCC3)nc(-c3ccccc3)c2c1`, the displacement is -8.1%.

Turning to `CCOc1ccc2cc(S(=O)(=O)n3ccnc3C)ccc2c1`, the displacement was 0.4%.

On to `COCCNC(=O)COc1ccc(Br)c(C)c1`, for which the displacement is -6.3%.

With `O=C(CSC1CC(=O)N(c2cc(Cl)cc(Cl)c2)C1=O)Nc1ccc(Br)cc1` (configuration not stated), the displacement stood at 11.1%.

As to `O=C(NCc1ccccn1)C(=O)N/N=C/c1ccccc1F`, the displacement is -3.6%.

With `O=C(Nc1ccc(I)cc1)C1CC=CCC1C(=O)OCC(Cl)=C(Cl)Cl` (configuration not stated), the displacement is -2.4%.

`CN(C)CCNCC12CC3CC(CC(C3)C1)C2`: the displacement is -3.1%.

Take `COc1ccc(NC(=S)NC(=O)c2cccs2)cc1`: the displacement is -9.3%.

With `CN1C(=O)/C(=C\c2ccccc2OCCOCCOc2ccccc2)SC1=S`, the displacement amounted to 3.3%.

Consider `O=C(NCCN1CCOCC1)c1nn2c(C(F)(F)F)cc(-c3ccccc3)nc2c1Cl`, for which the displacement is -0.7%.

Take `COc1ccc(N2C(=O)CC(NCCc3ccc(OC)c(OC)c3)C2=O)cc1` (configuration not stated): the displacement was 9.1%.

Consider `Cc1ccc(-c2ccc(OCC(=O)Nc3ccccc3[N+](=O)[O-])cc2)cc1`, for which the displacement is -3.2%.

Consider `Cc1cc(C)c2nc3s/c(=C\c4ccc(Cl)cc4)c(=O)n3c2c1`, for which the displacement is -7.8%.

Take `Cc1cc2oc(=O)cc(C)c2cc1NC(=O)c1ccccc1`: the displacement was determined as 40.8%.

Take `COc1cc(OC)c(OC)cc1C=NCC1OCCc2ccccc21` (configuration not stated): the displacement turned out to be 9.8%.

With `O=C1CCCC2=C1C(c1ccc([N+](=O)[O-])cc1)C1=C(CCCC1=O)N2c1ccc(Cl)cc1`, the displacement is 17.8%.

For `COc1ccc(C(=O)Nc2ccccc2C(=O)NCc2ccco2)cc1`, the displacement came to 9.5%.

Turning to `CC(C)=NNC(=O)C(C)Oc1ccc(Cl)cc1` (configuration not stated), the displacement was 5.1%.

With `CC1=C(C(=O)Nc2cc(Cl)ccc2C)C(c2ccc(F)cc2)NC(=O)N1` (configuration not stated), the displacement was found to be 12.6%.

For the compound `O=C(Nc1nccs1)c1sc2ccccc2c1Cl`, the displacement was -13.5%.

`CCOc1cc(/C=C2\N=C(c3ccccc3)OC2=O)ccc1OCc1c(C)no[n+]1[O-]`: the displacement turned out to be 5.7%.

For `CC(C)C(=O)Nc1ccc(Oc2ccc(Cl)cc2)cc1`, the displacement was 0%.

As to `O=C(Nc1cccc(Br)c1)c1ccccc1[N+](=O)[O-]`, the displacement came to 1.8%.

In the case of `Cc1cccc(OCC(=O)Nc2ccccc2F)c1C`, the displacement was determined as 3.7%.

`COc1ccc(C2CC(C(F)(F)F)n3ncc(C(N)=O)c3N2)cc1` (configuration not stated): the displacement was found to be 6.5%.

In the case of `CCCOc1ccc(Cl)cc1/C=C(/C#N)c1nc2ccc(C)cc2[nH]1`, the displacement turned out to be 15.5%.

As for `O=C(Cc1ccccc1)Nc1ncc(Cc2ccc(Cl)cc2Cl)s1`, the displacement turned out to be 17%.

As for `Cc1ccsc1/C=C1\SC(=S)N(CCc2ccccc2)C1=O`, the displacement is -1.2%.

Take `CCCOC(=O)c1ccc(N=Cc2cc(Br)ccc2O)cc1`: the displacement amounted to 10.8%.

In the case of `C/C(=N\Nc1cc(-n2nc(C)cc2C)nc(C)n1)c1ccc(C)cc1`, the displacement is -10%.

For the compound `O=C(/C=C/c1ccccc1Cl)Nc1nccs1`, the displacement came out at 10.1%.

Take `C=C(C)C(C)(C#CCN1CCOCC1)OC(C)=O` (configuration not stated): the displacement came to 1.4%.

With `CCOC(=O)Cc1csc(NC(=O)c2ccc(N3CCOCC3)c([N+](=O)[O-])c2)n1`, the displacement was -7%.

Consider `COc1ccc(OC)c(N(CC(=O)NCc2ccco2)S(=O)(=O)c2ccccc2)c1`, for which the displacement worked out at 3.7%.

Turning to `Cc1cccc(NC(=O)/C(C#N)=C\c2ccc(I)o2)c1C`, the displacement was -8.1%.

As for `CCC(=O)Nc1sc2c(c1C(=O)Nc1ccc(Cl)cc1)CCC2`, the displacement is -3.3%.

Consider `CC(C)(C#CC(O)(c1ccccc1)c1ccccc1)N1CCCC1`, for which the displacement was 0.1%.

As for `Cc1nc(Nc2nc3ccccc3o2)[nH]c(=O)c1C`, the displacement was determined as 6.4%.

For `COc1ccccc1/C=C1\SC(=S)N(Cc2ccco2)C1=O`, the displacement was 1%.

In the case of `Cc1ccc(Cc2ccc(C(=O)Nc3ccc([N+](=O)[O-])cc3)o2)cc1`, the displacement worked out at 6.3%.

Turning to `CC(=O)OCc1cc(C)cc(C=O)c1C`, the displacement was -8%.

On to `CCOC(=O)Cc1cc(OC)c(OC)cc1Cc1cc(OC)c(OC)cc1CC(=O)OCC`, for which the displacement was 3%.

Regarding `CC(C)Sc1nc2ccc(N3C(=O)c4ccccc4C3=O)cc2s1`, the displacement was -7.2%.

As to `CCNC(=O)C(=O)Nc1ccc(Cl)c(Cl)c1`, the displacement stood at 5.4%.

For `CC(C)c1ccc(N2C(=O)NC(=O)/C(=C/c3cn(C)c4ccccc34)C2=O)cc1`, the displacement was found to be 145%.

For the compound `COc1cc(/C=C2\SC(N3CCC(C)CC3)=NC2=O)ccc1O`, the displacement stood at 29.5%.

`CCOC(=O)c1ccccc1NC(=O)c1ccc(NC(C)=O)cc1`: the displacement was -4.2%.

Consider `C=CCN1C(=O)/C(=C\c2ccc(O)cc2)C(=O)NC1=S`, for which the displacement is -14.8%.

For `COC(=O)c1sccc1NC(=O)c1cccc(OC)c1`, the displacement is -1.5%.

For the compound `COc1cccc(C(=O)NC(NC(=S)Nc2cc(OC)ccc2OC)C(Cl)(Cl)Cl)c1` (configuration not stated), the displacement is -0.4%.

Turning to `Cc1ccc(-c2noc(-c3ccc(I)cc3)n2)cc1`, the displacement is 7.9%.

For `Cc1ccc(CN2CCN(/N=C/c3cc([N+](=O)[O-])ccc3Cl)CC2)cc1`, the displacement is 15.9%.

Consider `CC1(C)CC(=O)C2=C(C1)Nc1ccccc1N(C(=O)c1ccccc1)C2c1cccc([N+](=O)[O-])c1` (configuration not stated), for which the displacement is -5%.

With `CCOc1ccc(/C=C2\C(=O)NC(=O)N(c3ccc(Cl)cc3)C2=O)cc1Cl`, the displacement stood at 7.8%.

On to `Cc1cccc(N2CCN(C(=O)c3cccc(Br)c3)CC2)c1C`, for which the displacement is -8.6%.

In the case of `COc1ccc(CNC2=CC(=O)OC23CCCCC3)cc1`, the displacement turned out to be 11.6%.

For the compound `COc1c2c(nc3ccccc13)OC(C(C)(O)COC(C)=O)C2` (configuration not stated), the displacement turned out to be 14.6%.

As for `CCO/C(=N\S(=O)(=O)c1ccc(Br)cc1)c1ccccc1`, the displacement came to 10.3%.

`Cc1cc(/C=C2/NC(=O)NC2=O)c(C)n1-c1cccnc1`: the displacement was -1.2%.

`COc1ccc(C(=O)N2CCCN(C(=O)c3ccc(OC)cc3)CC2)cc1`: the displacement came to 9.4%.

Consider `CCOC(=O)C1CCN(C(=O)Nc2cccc3ccccc23)CC1`, for which the displacement worked out at 11%.

Regarding `O=C1c2ccccc2NC(c2ccc(Br)cc2)N1Cc1ccccc1` (configuration not stated), the displacement was 15.2%.

As to `O=C1OC(c2ccc(F)cc2)=N/C1=C\c1ccc2c(c1)OCO2`, the displacement was found to be 15.9%.

Consider `N#Cc1c2c(c(N3CCN(c4ccccn4)CC3)n3c1nc1ccccc13)CCC2`, for which the displacement came out at 2.1%.

On to `C=CCc1cccc2cc(C(=O)Nc3ccc(S(=O)(=O)Nc4nnc(CC)s4)cc3)c(=O)oc12`, for which the displacement was -1.6%.

For the compound `O=C(/C=C/c1ccccc1)Nc1ccc(Cl)cc1Cl`, the displacement stood at 7.3%.

For `COc1ccc(C(C)NC(=O)Cc2cccc3ccccc23)cc1` (configuration not stated), the displacement is -6.8%.

For the compound `CC(=O)Nc1ccc(C2=N/C(=C/c3ccc(-c4ccc(C)c(Cl)c4)o3)C(=O)O2)cc1`, the displacement was -7.2%.

`O=C(Nc1cccc2nsnc12)c1ccccc1[N+](=O)[O-]`: the displacement is 5%.

For the compound `O=C1C2C(C(=O)N1/N=C/c1ccc(Br)cc1)C1C=CC2C12CC2` (configuration not stated), the displacement was 8.3%.

As to `Cc1cccn2c(=O)c(C=O)c(N3CCC(C)CC3)nc12`, the displacement worked out at 17%.

In the case of `COc1ccc(C(=O)Nc2ccc(N(C)C)cc2)cc1[N+](=O)[O-]`, the displacement worked out at 2.3%.

For `O=[N+]([O-])c1ccc(N2CCOCC2)cc1N1CCN(CCO)CC1`, the displacement was -8.1%.

With `Cc1nn(-c2ccccc2)c2sc(C(=O)N/N=C/c3cc4c(cc3[N+](=O)[O-])OCO4)cc12`, the displacement is -1.4%.

`c1ccc(C(=NCCN=C(c2ccccc2)c2ccccc2)c2ccccc2)cc1`: the displacement was -4.8%.

Take `CCOC(=O)c1c(NC(=O)/C=C/c2ccc(OC)cc2)sc2c1CCCC2`: the displacement is 1.3%.

For `Cc1ccc(C(=O)CC2(O)C(=O)N(C)c3ccccc32)cc1` (configuration not stated), the displacement worked out at 9.6%.

Regarding `CCOP(C)(=O)C(CC(=O)OC)C(=O)OC` (configuration not stated), the displacement is -7%.

Take `CCOC(=O)c1c(CN(C)C)n(-c2ccccc2)c2ccc(OC(C)=O)cc12`: the displacement was determined as 1.5%.

As for `O=C(Nc1ccc(Cl)cc1)Nc1nnc(-c2cccc(F)c2)s1`, the displacement came out at 8%.

With `N#Cc1cc2c(nc1SCC(=O)Nc1nccs1)CCCCC2`, the displacement is -4.1%.

Regarding `COc1cccc(N(CC(=O)Nc2ccc(Cl)cc2)S(=O)(=O)c2ccccc2)c1`, the displacement stood at 13.7%.

`COc1ccc(N2C(=O)CC(Nc3ccc(Cl)cc3)C2=O)cc1` (configuration not stated): the displacement was -7.2%.

Turning to `C=CCc1cccc(/C=N/NC(=O)c2cc(-c3ccc4ccccc4c3)n[nH]2)c1O`, the displacement was -13.5%.

Regarding `CC(C)CC(=O)N1CCN(C(=O)c2ccc(-c3ccccc3)cc2)CC1`, the displacement came out at 13.7%.

Regarding `CN(C)c1ccc(/C=N/Nc2nnc3c(n2)[nH]c2ccc(Br)cc23)cc1`, the displacement is -7.2%.

As for `Cc1cc(C)cc(OCCCc2c(C)n[nH]c2C)c1`, the displacement is -8%.

For the compound `COc1ccc(NC(=O)CN(c2ccc(C)cc2)S(=O)(=O)c2ccc(OC)c(OC)c2)c(OC)c1`, the displacement worked out at 18.2%.

As for `O=C(O)C1(P(=O)(c2ccccc2)c2ccccc2)CC1`, the displacement was -2.4%.

Turning to `O=C(O)/C=C/C(=O)Nc1ccc2c(c1)OCO2`, the displacement came out at 5.9%.

Consider `COc1ccc(C(=O)NN2CCOCC2)cc1OC`, for which the displacement is -3.1%.

On to `O=C(/C=C/c1ccco1)Nc1sc2c(c1C(=O)O)CCC2`, for which the displacement is -3.2%.

With `CN(C)c1ccc(/C=C2\SC(=Nc3ccc(O)cc3)NC2=O)cc1`, the displacement worked out at 50.9%.

Take `COc1ccc(/C(N)=N/OC(=O)c2ccccc2Cl)cc1`: the displacement is -7.4%.

As to `C=CCNC(=S)N/N=C/c1cccc([N+](=O)[O-])c1`, the displacement is -12.7%.

Take `Cc1cc(=O)oc2c1c(C)nn2-c1cccc(C(F)(F)F)c1`: the displacement amounted to 8.5%.
